Measurements reported in PubChem BioAssay AID1460 (National Center for Advancing Translational Sciences (NCATS), 2008).
“And” between values parts separate entries of the source, which are not always exact repeats. Identical values can stand only once. The whole screen tested about 270,000 compounds, of which about 5,800 (2.1%) were called active. This list was built around the results that the source calls inconclusive (neither active nor inactive); the mix of calls is not that of the screen. Calls come from the whole dose curve; as a rule, active = well fitted inhibition curve with a large enough effect; inconclusive = small, poorly fitted or top-dose-only effect; inactive = flat fitted curve, though single readings scatter. Potencies beside an inconclusive call are fits to weak or partial responses and may not hold up.

Each molecule was assayed against Microtubule-associated protein tau (Homo sapiens) (UniProt P10636) (assay: qHTS for Inhibitors of Tau Fibril Formation, Thioflavin T Binding). Settings: recombinant tau K18 P301L (four-repeat tau fragment), heparin-induced fibrillization, ThT fluorescence; series mostly up to 57.4 µM.
Chain of UniProt P10636 (P10636 whole entry, looked up, the tested form may be a part): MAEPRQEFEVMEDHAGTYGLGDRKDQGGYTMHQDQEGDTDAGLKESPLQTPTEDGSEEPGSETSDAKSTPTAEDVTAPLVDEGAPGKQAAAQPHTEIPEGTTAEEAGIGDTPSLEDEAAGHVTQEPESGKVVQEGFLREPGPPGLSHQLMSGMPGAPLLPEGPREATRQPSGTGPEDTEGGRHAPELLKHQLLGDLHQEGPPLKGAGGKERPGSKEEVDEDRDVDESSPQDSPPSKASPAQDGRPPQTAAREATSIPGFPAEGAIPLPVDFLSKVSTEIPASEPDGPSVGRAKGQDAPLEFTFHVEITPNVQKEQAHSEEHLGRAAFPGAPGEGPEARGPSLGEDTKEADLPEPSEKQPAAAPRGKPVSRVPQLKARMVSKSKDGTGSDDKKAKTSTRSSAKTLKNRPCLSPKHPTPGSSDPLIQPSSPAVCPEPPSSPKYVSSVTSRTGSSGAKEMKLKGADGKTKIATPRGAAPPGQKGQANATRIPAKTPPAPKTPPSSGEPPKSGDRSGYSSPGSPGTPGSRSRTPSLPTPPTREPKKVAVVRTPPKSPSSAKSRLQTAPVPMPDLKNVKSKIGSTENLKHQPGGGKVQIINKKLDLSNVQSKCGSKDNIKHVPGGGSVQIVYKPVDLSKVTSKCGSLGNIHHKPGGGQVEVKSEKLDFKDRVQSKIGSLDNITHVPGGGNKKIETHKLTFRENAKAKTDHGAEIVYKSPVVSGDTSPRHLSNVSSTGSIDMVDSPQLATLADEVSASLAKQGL
In short: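 Heparin-induced fibrillization of the P301L-mutant K18 repeat-domain fragment of human tau was followed by ThT binding in quantitative high-throughput format.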
% is set by controls: 0 for no effect and ±100 for the full control effect; potency is the fitted concentration of half-maximal effect; tags give direction and shape of the fitted curve.
Note: nearly all actives have a fitted effect of over 55% in size.

SMILES	Potency	activity, negative = inhibition
Cn1cccc1/C=C1\SC(=S)N(NC(=O)c2ccccc2)C1=O	active: 11.2 µM	–
O=C1c2ccccc2COc2ccc(O)cc21	inconclusive: 39.8 µM [inhibitor, single point]	–
Cc1cccc(NC(=S)NCCc2c[nH]c3ccccc23)c1	inconclusive: 31.6 µM [inhibitor, single point]	–
COc1cc(NCc2ccc3nc(N)nc(N)c3c2C)cc(OC)c1OC	active: 20 µM	–
O=C(/C=C/NNC(=O)c1ccc(Cl)cc1)c1ccccc1	active: 22.4 µM	–
COc1cc(/C=C/c2nc(C#N)c(NC(C)c3ccccc3)o2)cc(OC)c1OC (stereo not drawn)	inconclusive: 25.1 µM [inhibitor, partial curve]	–
O=C1c2ccccc2NC(c2ccc(-c3cccc(Cl)c3)o2)N1O (stereo not drawn)	inconclusive: 17.8 µM [inhibitor, partial curve, poor fit]	–
N#C/C=C(/N)N1CCN(c2ccc(Cl)c(Cl)c2)CC1	inconclusive: 31.6 µM [inhibitor, partial curve]	–
Cc1ccc(S(=O)(=O)N[C@@H](Cc2ccccc2)C(=O)CCl)cc1	inconclusive: 7.08 µM [inhibitor, full curve, poor fit] and inconclusive: 8.91 µM [inhibitor, single point] and inconclusive: 112 nM [inhibitor, full curve]	–
COc1ccc(NC(=O)CSc2nc3c(c(-c4cccs4)c2C#N)CN(C)CC3)cc1OC	active: 25.1 µM	–
CC(=O)N/N=C/c1ccc(OCCOc2ccc(Br)cc2)cc1	inactive	–
CC(C)(C)N1C(=O)[C@H]2[C@H]3[C@H](O)[C@H](O)C/C(=N/OC[C@@H](O)COCc4ccco4)[C@@H]3CC[C@@H]2C1=O	–	inactive: -1.59% [at 11.5 µM]
COc1ccccc1N=C1SC(C(=O)Nc2cccc(Cl)c2Cl)C(N)=C1C(N)=O (stereo not drawn)	active: 25.1 µM	–
CCCn1c(N2CCC(Cc3ccccc3)CC2)nc2c1c(=O)[nH]c(=O)n2C	inconclusive: 39.8 µM [inhibitor, single point]	–
Cc1cccc2cc(C#N)c(SCC(=O)NNC(=O)Cc3ccccc3)nc12	inconclusive: 44.7 µM [inhibitor, single point]	–
O=C(CCCN1C(=O)/C(=C/c2ccco2)SC1=S)Nc1cccc(C(=O)O)c1	active: 15.8 µM	–
Cc1ccc(NC(=O)CCc2c(C)nn(-c3ccc(N4CCOCC4)nn3)c2C)cc1F	inconclusive: 17.8 µM [inhibitor, single point]	–
Cc1ccc(C(CC(=O)O)Nc2nc(N3CCOCC3)nc(N3CCOCC3)n2)cc1 (stereo not drawn)	inactive	–
O=c1c(Cl)c(O)c2cccc3c4ccccc4n1c23	active: 14.1 µM	–
COc1ccc(NC(=S)Nc2ccc3cn[nH]c3c2)cc1	inconclusive: 14.1 µM [inhibitor, partial curve]	–
O=C(N/N=C1\CCCc2ccccc21)c1ccccc1Cl	inconclusive: 12.6 µM [inhibitor, partial curve]	–
Cc1ccc2nc3cc([N+](=O)[O-])cc([N+](=O)[O-])c3cc2c1	active: 3.16 µM	–

SMILES	Potency	activity, negative = inhibition
COc1cccc(N(Cc2nnc3n2CCCCC3)C(=O)Nc2cccc(Cl)c2)c1	inactive	–
Cn1cc(/C=N/Nc2ccccc2)c2ccccc21	inconclusive: 15.8 µM [inhibitor, partial curve]	–
COc1ccc(CCCc2nnc(SCC(=O)Nc3ccccc3F)o2)cc1C	inconclusive: 1.58 µM [inhibitor, full curve, poor fit]	–
O=C(CSc1nc(C2CC2)nc2ccccc12)Nc1ccc2c(c1)OCCO2	inconclusive: 28.2 µM [inhibitor, single point]	–
O=C(/C=C/c1ccco1)Nc1ccc(Cl)c(-c2nc3cc(Cl)ccc3o2)c1	inactive	–
NCCCC[C@@H]1NC(=O)c2cc([N+](=O)[O-])cc(F)c2NCCCC[C@@H](C(N)=O)NC(=O)CNC1=O	inconclusive: 25.1 µM [inhibitor, partial curve, poor fit]	–
COc1cccc(NC(=O)c2ccc(CNS(=O)(=O)c3ccc4c(c3)C(C)(C)C(=O)N4C)cc2)c1	inactive	–
Cc1ccc(N/N=C(\C#N)C(=N)N2CCCCC2)cc1	inconclusive: 15.8 µM [inhibitor, partial curve]	–
Cc1ccc(NC(=O)c2cc(-c3ccccc3)nn2-c2ccccc2)cc1	inactive	–
Cc1ccc(C)c(N2CCN(C(=O)COc3cc(=O)n(C)c4ccccc34)CC2)c1	inconclusive: 15.8 µM [inhibitor, single point]	–
Cc1ccc(C(=O)Oc2ccc3c(c2)ncn3C)cc1	inactive	–
Cc1ccc(NC(=O)Cn2cc(S(=O)(=O)NC(C)C)c(S(=O)(=O)NC(C)C)c2)cc1Cl	inconclusive: 0.355 µM [activator, full curve, poor fit]	–
Cc1c(CN2CCC(CO)(CCOc3ccccc3)CC2)[nH]c2c(Cl)cccc12	inconclusive: 11.2 µM [inhibitor, partial curve]	–
CCO[C@@H]1OC(C(=O)Nc2ccccc2)=C[C@H](c2csc3ccccc23)[C@H]1CCCO	inactive	–
CC(C)C(=O)Nc1ccc(-c2ccc3nncn3n2)cc1	inconclusive: 14.1 µM [inhibitor, partial curve]	–
Cc1ccc(C)c(CN2C(=O)c3ccccc3S(=O)c3ccc(C(=O)NCc4ccco4)cc32)c1 (stereo not drawn)	inactive	–
Cc1cc(C)c(S(=O)(=O)Nc2cccc(-c3cn4ccccc4n3)c2)c(C)c1	inconclusive: 39.8 µM [activator, single point]	–
O=[N+]([O-])c1c(NCc2ccccc2)cc(N2CCc3ccccc3C2)c2nonc12	inconclusive: 5.01 µM [inhibitor, partial curve]	–
Cc1ccc2c(c1)c(C)cc[n+]2Cc1ccccc1	inactive	–
COc1ccc(NC(=O)/C(Cl)=C(/Cl)S(=O)Cc2ccc(Cl)cc2)cn1 (stereo not drawn)	inconclusive: 14.1 µM [inhibitor, partial curve]	–
O=C1Nc2cc(Cl)ccc2Oc2cc(Oc3ccccc3)ccc21	inactive	–
